Measurements from article PMC6919601, “Identification of Plasmodium dipeptidyl aminopeptidase allosteric inhibitors by high throughput screening” (PLoS ONE, 2019).
The campaign covered roughly 110,000 compounds. About 230 (0.21%) showed an effect of 50% or more. Some of the results follow.

Biological target: DPAP1 (Plasmodium falciparum, UniProt Q8IIJ9)
Assay: primary screen, percent inhibition; read by cleavage of a fluorogenic dipeptide substrate; higher = more effect of the substance
Set-up: species or system P. falciparum D10 trophozoite lysates; single well
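Also: 30 min substrate incubation versus DMSO and 10 µM JCP410 controls.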

DPAP1, sequence (Q8IIJ9 whole entry, looked up): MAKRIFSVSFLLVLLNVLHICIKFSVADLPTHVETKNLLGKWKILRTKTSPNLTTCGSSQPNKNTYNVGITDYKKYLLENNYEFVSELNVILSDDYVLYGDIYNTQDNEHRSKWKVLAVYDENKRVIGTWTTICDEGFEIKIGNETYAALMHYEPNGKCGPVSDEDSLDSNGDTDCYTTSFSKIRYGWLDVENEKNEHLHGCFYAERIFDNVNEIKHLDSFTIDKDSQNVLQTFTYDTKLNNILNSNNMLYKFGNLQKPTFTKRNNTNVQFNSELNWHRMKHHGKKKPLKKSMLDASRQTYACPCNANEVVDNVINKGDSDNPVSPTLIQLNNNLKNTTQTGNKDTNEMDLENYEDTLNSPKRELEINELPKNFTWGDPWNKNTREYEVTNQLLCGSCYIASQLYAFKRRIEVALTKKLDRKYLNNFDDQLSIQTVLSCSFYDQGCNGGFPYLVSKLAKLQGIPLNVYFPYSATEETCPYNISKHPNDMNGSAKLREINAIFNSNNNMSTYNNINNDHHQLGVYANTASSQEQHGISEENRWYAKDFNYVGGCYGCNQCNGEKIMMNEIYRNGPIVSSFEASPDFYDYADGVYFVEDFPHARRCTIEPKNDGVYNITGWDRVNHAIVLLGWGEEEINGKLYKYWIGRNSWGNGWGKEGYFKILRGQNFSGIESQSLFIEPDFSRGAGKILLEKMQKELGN

In order of rising “% Inhibition @ 10 uM” value:
1. Cc1ccccc1C(=O)Nc1ccc(N)cc1  -10.2%
2. COc1ccc(CCNC(=O)c2cccc3c2C(=O)N(C2CCCCC2)C3)cc1OC  -4.69%
3. COc1cccc(C(=O)Nc2ccc(S(=O)(=O)Nc3nccc(C)n3)cc2)c1  -4.18%
4. O=[N+]([O-])c1ccc(C2Nc3ccccc3C(c3ccccc3)(c3ccccc3)O2)s1 (centres unmarked)  -4.01%
5. O=S(=O)(c1ccc(-c2csc(Nc3ccc(Cl)cc3)n2)cc1)N1CCCC1  -3.79%
6. COc1ccccc1C1C2=C(O)CC(C)(C)CC2=Nc2ccc3ncccc3c21 (centres unmarked)  -2.77%
7. Cc1[nH]c2ccccc2c1Cc1nnc(SCC(=O)NCc2ccco2)o1  -2.75%
8. Cc1cc(C)c2c(n1)nn1c(C)c(CCC(=O)NC(C)c3cccs3)c(C)nc21 (centres unmarked)  -2.67%
9. COc1ccc(-c2nnc(SCC(=O)NCc3ccccc3)n2-c2ccccc2)cc1OC  -1.68%
10. CCC(C)C(=O)Nc1ccc(S(=O)(=O)N2CCC(C)CC2)cc1 (centres unmarked)  -1.63%
11. Cc1cccc(NCc2ccc(C)o2)c1  -1.5%
12. CC1=CC2=NC(=O)/C(=C\c3ccc(OCc4ccc(C)cc4)cc3)C(=N)N2O1  -1.43%
13. Cc1ccc(OCC(=O)Nc2cccc(C)c2C)cc1  -1.42%
14. CC(C)(C)NC(=O)Cn1cc(C(=O)c2ccco2)c2ccccc21  -1.33%
15. Cc1sc2ncn(CC(=O)N3CCC(C)CC3)c(=O)c2c1-c1ccc(Br)cc1  0.163%
16. Cc1nn2c3ccccc3n(CC(=O)c3ccc(Br)cc3)c2nc1=O  0.324%
17. CC(C)C(C(=O)Nc1nc2ccccc2s1)N1C(=O)c2ccccc2C1=O (centres unmarked)  0.331%
18. O=C(O)c1ccccc1N(Cc1ccccc1)C(=O)c1ccco1  0.512%
19. CC(C)C[C@H](NC(=O)OCc1ccccc1)C(=O)NC(CCc1ccccc1)C(O)C[N+](=O)[O-] (some centres unmarked)  0.744%
20. C=Cc1cccc(C(=O)N[C@@H](C[C@H](C)c2ccccc2)C(=O)N[C@@H](CC)C(=O)c2nc3ccccc3o2)c1  1.16%
21. N#Cc1ccc(NC(=O)c2cccc(C(F)(F)F)c2)cc1  1.83%
22. Cc1cc2nc(C[n+]3ccc4ccccc4c3)[nH]c2cc1C  2.38%
23. CCC1CCCCN1S(=O)(=O)c1ccc(S(=O)(=O)N2CCN(c3ncccn3)CC2)cc1 (centres unmarked)  3.81%
24. Cc1nc2cc(C(=O)O)ccc2n1C1CCCCC1  4.54%
25. Cc1c(C(=O)NCCCN2CCCC2=O)oc2c1-c1nn(Cc3cccc(Cl)c3)cc1CC2  7.13%
26. CC1(C)CC(=O)C2=C(C1)NC(=O)CC2c1ccc(-c2ccccc2)cc1 (centres unmarked)  9.42%
